Data taken from the supplement of paper PMC10126150.
Values marked as one replicate rest on one cluster of the flow cell; about a third of the high ones do not repeat.

System: ATP
Assay: switch fluorescence ratio, 500 uM ATP over buffer (Cy3 cluster intensity, sum of 5 cycles each) (fold (ratio)); higher = stronger signal-on switching upon ATP binding; sequences stand for … in TCGTCGGCAGCGTCAGATGTGTATAAGAGACAGTTTTTTTTTTTTTTTTTTTTTTTTT…TC
Details: aptamer strand: ATP DNA aptamer (quencher-CACCTGGGGGAGTATTGCGGAGGAAGG + anchor), 100 nM annealed; ATP concentration: 500 uM; one replicate
Summary of the method: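 Cy3-labelled switching-strand clusters on a modified Illumina MiSeq flow-cell were annealed to 100 nM quencher-labelled ATP aptamer, imaged in selection buffer, then imaged after 15 min with 500 uM ATP at 22 °C. Five buffer/ATP cycles ran, with NaOH stripping and re-annealing between them. The fluorescence ratio is summed target-cycle over summed buffer-cycle Cy3 intensity per cluster, averaged per switch-domain sequence. Clusters outside 100-1000 RFU were excluded.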
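Note: ATP exposure 15 min at 22 °C before imaging.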

Sequence | switch fluorescence ratio
TCAACCCATT | 1.02
GAAGGAACAT | 1.03
ATCTCCCAAA | 1.2
CCTGGGCTGG | 1.05
ATTGTCTTAA | 0.934
TTGAGGCTCT | 0.975
AGGGGTGGG | 0.996
GTTGGAAAA | 0.988
CTGATACGAT | 1.06
ATCGAATTGA | 0.985
TTTATTAATA | 0.983
GATAGAGGCT | 0.979
AGTGCACCTC | 0.975
GATGACCGCG | 1.05
CCGTTAAGTT | 1.02
TTTAAGCCTG | 0.965
TTCTAGGGGC | 1.2
ATAACGAT | 0.981
AGCCCTTTAG | 1.05
AATGGGTCCC | 1.02
AAGGGTTTTG | 0.964
CATGTACGGA | 1.1
GAATGCCGCG | 0.988
CCTTTCCGTT | 1.23
TGTCAATTCA | 0.976
GAGCCTGTGT | 1.01

Sequence | switch fluorescence ratio
AACTGCTGTT | 1.06
CAGAGGTTGA | 1.05
GACACCACCA | 1.4
TATTGTGGTG | 0.988
CTGTGAATCA | 0.972
GTTCTACGGA | 1.01
TGCCCTTGGG | 1.31
TGACAGGGCA | 0.993
ATGATGTATT | 0.984
CTGTCCGTGG | 1
GATCTCTTTT | 0.991
CGGAATTCGG | 1.05
TTTGTGCTCG | 1.03
TAGATACCTT | 1.14
GGGCCGAAAT | 1.03
TCAAAGTGGC | 1.06
TTAAACGGGC | 1.04
GGAAGCAGAA | 0.971
AGCACCCAGC | 1
AGTGCAC | 1.05
GGCATTCAGA | 0.978
TACCCGTTGG | 1.03
TGTTTCATAA | 0.987
GAACCTTTG | 1.17
CGGTAGCTTT | 1.12
TATTGTTTGG | 0.983

Sequence | switch fluorescence ratio
CGCACTTTGC | 1.06
TACGTCGGTT | 1.07
TCGGGGAGTG | 1.01
CAACAGTTAC | 1.18
CCCTGGTTGG | 1.05
TCGAGGGACT | 1
ATGATAATAT | 0.997
CCTAACCGAC | 2.34
CGTTCGCACG | 1.11
TATCGGGTGA | 1
CCTACCGAGC | 2.91
CGGCCCCTGG | 1.16
TGCTGATCAG | 0.991
GCAAAACCTC | 1.01
TCGTCGCCTG | 0.989
AAAACATGG | 0.993
GAAGGAATTG | 1.03
TTGGGTAGCG | 1.06
AGCCAGAGTG | 1.45
TCTCTAACGC | 1.1
CGGAAAAACA | 1.06
GCAGTCGATG | 1.04
TGAACTTTGA | 1.07
ACGCGACCGT | 1.16
TTCGGCGCAA | 1.01
ACTGTATCTC | 1.13

Sequence | switch fluorescence ratio
ACGTGCCAGC | 0.98
GGGGTGAACA | 0.945
CTCGTCCGTG | 1.01
GATTTTTTG | 0.996
GACGAGGCAT | 3.87
TTTCCTGCGT | 1.19
TAAGGAGCTG | 1.02
CTTTGGGATT | 1.02
TCAGTGGAGA | 1.08
AGGCTCCCGG | 1.02
TGTCGAAAAT | 0.982
ATCGGGCCTT | 0.975
GGTACCAGGA | 1.05
CTGCGGGTCG | 1.01
TTTGGACCCC | 1.04
TAGGGGCGTC | 0.956
AAAGACGA | 1.58
CGCATTTGTC | 1.65
GTAATCAGAT | 1.02
ATGGCGCCGC | 1.03
ACTACATGAG | 1.06
CTTGCCCTCT | 0.991
CGGAGGATCT | 1.01
TGGAACCTTG | 1.02
TAGAAGGCGA | 1.01
TTAAGGACGA | 1.05

Sequence | switch fluorescence ratio
TTCCGTGCCG | 1
AAGGCAGCTG | 0.92
GGGCTGGTGG | 1.05
AATAGGATGA | 1.01
TTTAGCACTC | 1.14
TAAACGCATG | 1.06
AGGTGAGGTC | 1.05
CGTTTCTGTC | 1.01
TGCCTGGAGC | 1.03
GCAATCCCAG | 2.6
AACGAGACAT | 1.12
GAGGGTTCGC | 1
TTTCGCCGGG | 1.02
AATTAGGTCT | 0.982
GCTTGCTTTC | 0.965
TGCGGTAGG | 1
TGGGCACGCT | 0.998
CGGGCAAGGC | 1.01
TTGGTTGTTG | 1
GGGTTACGT | 1.03
TCCCTCCTAC | 2.36
TGTAAAACGA | 0.972
AATGGTGGAC | 1.01
GACGTTGTTC | 1.36
TAGATATTA | 1
TTATGGGGT | 0.986

Sequence | switch fluorescence ratio
CTGGACGGGT | 1.04
AATGTTTTAT | 0.992
CAGTATATGA | 0.992
TTTCTATCCC | 1.03
CAGCCGCGTT | 2.24
GGACCGGAGA | 1.01
AGACTCACCT | 1.33
TTCTTAGAAG | 1.03
ACATGCTAGG | 0.995
TCCCGGCAAC | 4.08
AATGGAAA | 0.975
ATGAACAAAC | 1.05
AAATAGTAGC | 1.02
TCTGTAGTCA | 1.17
TCATTTCATA | 1
CGTCAATCGC | 2.05
AGTGATAAAG | 1.05
TTTACTTAAA | 0.991
TCATGAACCT | 1.88
GCGCCCCGTA | 1.03
CCGCTGAGCC | 2.38
GCCACTCAGT | 1.05
AAGAAGTAAC | 1.05
